The values below come from patent US20240425555A1 (NORTHWESTERN UNIVERSITY, published 2024).

In the assay the target is T1, PTEFb complex (CDK9 and Cyclin T1), endogenous, from cell lysate (human, UniProt P50750; O60563 1-726).
T1 construct: Endogenous complex captured from cell lysate and detected by mass spectrometry or by western blot for CDK9 and Cyclin T1; Other associated proteins in the lysate are not excluded; also called positive transcription elongation factor
Briefly: GFP IP-MS and western blot.

T1 sequence (P50750 whole entry, chain 1 of 2): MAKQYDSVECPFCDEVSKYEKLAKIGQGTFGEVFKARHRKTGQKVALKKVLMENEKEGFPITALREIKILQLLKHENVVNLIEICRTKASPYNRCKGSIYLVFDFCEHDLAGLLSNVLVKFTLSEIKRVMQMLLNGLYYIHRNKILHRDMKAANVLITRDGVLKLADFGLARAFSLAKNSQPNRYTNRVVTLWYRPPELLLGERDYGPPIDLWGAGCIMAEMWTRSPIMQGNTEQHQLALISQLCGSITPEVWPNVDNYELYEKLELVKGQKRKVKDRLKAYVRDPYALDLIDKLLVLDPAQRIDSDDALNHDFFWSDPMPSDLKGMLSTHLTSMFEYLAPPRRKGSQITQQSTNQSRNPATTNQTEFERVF
T1 sequence (O60563 whole entry, chain 2 of 2, further chain): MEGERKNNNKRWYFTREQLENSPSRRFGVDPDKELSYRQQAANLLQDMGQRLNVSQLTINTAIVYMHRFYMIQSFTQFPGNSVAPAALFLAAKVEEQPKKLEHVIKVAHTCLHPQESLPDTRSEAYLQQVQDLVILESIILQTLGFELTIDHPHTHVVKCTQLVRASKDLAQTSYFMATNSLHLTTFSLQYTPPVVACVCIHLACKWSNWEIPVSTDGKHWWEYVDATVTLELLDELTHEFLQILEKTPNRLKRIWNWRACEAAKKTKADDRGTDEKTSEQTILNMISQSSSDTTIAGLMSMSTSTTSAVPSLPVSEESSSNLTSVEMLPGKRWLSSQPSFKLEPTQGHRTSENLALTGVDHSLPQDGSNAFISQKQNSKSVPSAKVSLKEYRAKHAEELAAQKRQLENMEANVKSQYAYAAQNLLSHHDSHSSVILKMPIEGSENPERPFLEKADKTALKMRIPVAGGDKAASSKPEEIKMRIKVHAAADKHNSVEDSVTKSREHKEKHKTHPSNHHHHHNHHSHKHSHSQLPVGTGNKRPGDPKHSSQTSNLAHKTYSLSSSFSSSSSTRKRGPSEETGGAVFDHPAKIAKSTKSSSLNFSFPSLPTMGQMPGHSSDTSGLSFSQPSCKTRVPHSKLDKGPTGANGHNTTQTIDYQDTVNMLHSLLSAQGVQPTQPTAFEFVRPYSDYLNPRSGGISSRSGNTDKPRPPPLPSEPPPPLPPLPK

B1: GFP-tagged BRD4 short C terminus construct (Cs), 170 residues from the C terminus of BRD4 (other)
chain: DLKIKNMGSWASLVQKHPTTPSSTAKSSSDSFEQFRRAAREKEEREKALKAQAEHAEKEKERLRQERMRSREDEDALEQARRAHEEARRRQEQQQQQRQEQQQQQQQQAAAVAAAAT[about 60 residues not given here]
notes: also called BRD4-Cs; C-terminal fragment Cs; not shown: NLS-GFP tag of vector TetOn-NLS-GFP
As to B1, the binding result was “binds”.
